The record followed here is PubChem BioAssay AID488969 (Vanderbilt High Throughput Screening Facility, 2010).

The full ranking holds about 110,000 compounds; the median of “z-score” is about -0.1, and the highest 2% start at about 2. The list shows a part of the results.

For this experiment, the target named is Metabotropic glutamate receptor 8 (Rattus norvegicus) (UniProt P70579). Put plainly: mGluR8 Gi/Go-coupled signaling modulation – cell-based, rat, thallium flux, HTS, primary screen (AID 488969). Conditions: HEK293 rat mGluR8, GIRK (G protein-gated inwardly rectifying potassium channel) thallium flux, FluoZin2; at 10 µM; stronger effect = higher value; submaximal glutamate (EC20) added with thallium.
UniProt P70579, sequence (P70579 whole entry, looked up): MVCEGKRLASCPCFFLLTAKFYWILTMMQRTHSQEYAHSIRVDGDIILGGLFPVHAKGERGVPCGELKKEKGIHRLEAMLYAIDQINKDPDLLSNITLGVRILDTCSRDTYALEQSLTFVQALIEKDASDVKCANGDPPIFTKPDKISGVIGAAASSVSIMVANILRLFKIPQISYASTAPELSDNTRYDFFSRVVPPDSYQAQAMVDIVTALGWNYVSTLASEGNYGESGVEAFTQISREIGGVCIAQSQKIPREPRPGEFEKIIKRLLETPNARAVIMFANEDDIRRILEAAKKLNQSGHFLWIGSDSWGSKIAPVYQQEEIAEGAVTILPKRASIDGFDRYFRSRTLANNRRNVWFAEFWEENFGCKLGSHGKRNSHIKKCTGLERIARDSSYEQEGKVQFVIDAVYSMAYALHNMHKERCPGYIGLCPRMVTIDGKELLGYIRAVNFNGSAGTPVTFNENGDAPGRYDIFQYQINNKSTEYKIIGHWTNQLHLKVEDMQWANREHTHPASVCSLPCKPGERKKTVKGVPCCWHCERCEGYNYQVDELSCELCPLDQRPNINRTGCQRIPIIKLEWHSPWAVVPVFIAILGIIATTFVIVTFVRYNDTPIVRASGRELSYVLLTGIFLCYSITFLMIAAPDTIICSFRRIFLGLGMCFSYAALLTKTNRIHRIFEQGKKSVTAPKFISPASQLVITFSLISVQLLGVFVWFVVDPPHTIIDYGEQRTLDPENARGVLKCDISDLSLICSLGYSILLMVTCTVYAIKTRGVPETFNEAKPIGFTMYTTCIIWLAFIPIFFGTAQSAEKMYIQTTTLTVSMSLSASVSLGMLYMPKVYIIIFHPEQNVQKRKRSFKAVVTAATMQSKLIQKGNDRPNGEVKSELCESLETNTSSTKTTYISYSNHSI
`O=C(Cc1ccccc1F)Nc1ccc(SC(F)F)cc1` yielded a z-score of -0.252.

`Cc1nnc(N2C(=O)C(O)=C(C(=O)c3ccco3)C2c2ccc(F)cc2)s1` (configuration not stated) yielded a z-score of -1.8.

Take `O=c1oc2ccccc2n1CCn1c2ccccc2c2nc3ccccc3nc21`: the z-score amounted to 0.0202.

`CC(C)(C)OC(=O)NNC(=S)NCc1ccc(Cl)cc1` came in with a z-score of -0.208.

On to `Cc1ccccc1C(O)c1ccccn1` (configuration not stated), for which the z-score is -0.0885.

Compound `CCC(C)(C)NC(=O)C(c1ccc(C)cc1)N(Cc1cccs1)C(=O)c1ccc2c(c1)OCCO2` (configuration not stated) displayed a z-score of -0.522.

On to `COc1ccc(-c2ncc3ccccn23)cc1OC`, for which the z-score is -0.266.

In turn, `Cc1ccc(C)n1-c1ccncc1` showed a z-score of 0.151.

On to `CC1=C(C(=O)Nc2ccccc2)C(c2ccco2)C(C#N)=C(SCc2ccccc2)N1` (configuration not stated), for which the z-score is -0.138.

On to `COc1cc(CNc2ccc3[nH]c(=O)[nH]c3c2)cc(Br)c1OCC(=O)NC(C)(C)C`, for which the z-score was -0.442.

For the compound `Cc1cccc(N2CCN(C(=O)Cc3cn(C)c4ccccc34)CC2)c1C`, the z-score is -0.0564.

Compound `CCS(=O)(=O)c1ccc(C(=O)Nc2cccc(Cl)c2)c(Cl)c1Cl` yielded a z-score of -0.531.

As for `CCn1nccc1C(=O)Nc1ccc(Cl)c(Cl)c1`, the z-score was -0.202.

In turn, `O=C(O)c1ccc2cccc(Cl)c2c1O` displayed a z-score of -0.126.

Compound `c1nnc(NC2=NCCC2)s1` returned a z-score of 1.04.

Regarding `O=C(c1ccc(=O)oc1)N1CCCc2ccccc21`, the z-score worked out at 0.021.

In turn, `CCN(CC)c1ccc(NC(=O)Nc2cccc(C(C)=O)c2)cc1` returned a z-score of 0.62.

Regarding `Cc1ccc(N(CC(=O)N/N=C/c2cccs2)S(C)(=O)=O)cc1Cl`, the z-score turned out to be 0.481.

With `CCOC(=O)c1c(NC(=O)c2nn(CC)cc2Br)sc2c1CCCCC2`, the z-score was -0.179.

Consider `CCc1cccc(CC)c1NC(=O)COC(=O)c1cccc(-c2ccc(OC(C)=O)cc2)c1`, for which the z-score was -1.91.

`Cc1nc(CCNC(=O)Cc2ccc(Cl)cc2)cs1` came in with a z-score of 0.111.

Compound `Cc1ccccc1-n1c(=O)c2ccccc2n2c(=O)[nH]nc12` had a z-score of 0.413.

In turn, `COc1ccc(S(=O)(=O)N2CCC(C(=O)N3CCCCCC3)CC2)cc1` returned a z-score of -0.382.

As to `COc1ccc(-c2nc(-c3ccc(NC(=O)c4ccc(Br)o4)cc3)no2)cc1OC`, the z-score was -0.935.

In turn, `CC(O)c1nc2ccccc2n1Cc1ccc([N+](=O)[O-])cc1` (configuration not stated) yielded a z-score of -0.255.

For the compound `Cc1cccc(N(CC(=O)NCCC2=CCCCC2)S(C)(=O)=O)c1C`, the z-score was 0.0571.

Regarding `CC(NC(=O)NC1CCCCC1)C(c1cccs1)N1CCN(c2ccccc2)CC1` (configuration not stated), the z-score was -0.774.

Compound `C=CCn1c(CSc2nc3ccccc3s2)nnc1SCC(=O)OCC` came in with a z-score of -1.77.

In the case of `Cc1ccnc2c(N3C(=O)C4C5C=CC(C5)C4(C)C3=O)cccc12` (configuration not stated), the z-score turned out to be 0.129.

Consider `O=C(NCc1nnc(SC/C=C/c2ccccc2)o1)c1ccco1`, for which the z-score is -0.142.

Compound `CNC(=O)CSc1nc2nc(C)cc(C)n2n1` yielded a z-score of 0.206.

For the compound `CN1CCN(C(=O)c2ccc(-c3nn(C)c(=O)c4ccccc34)cc2)CC1`, the z-score is -0.877.
